Experimental data from article PMC12820563, “FoxP3 forms a head-to-head dimer in vivo and stabilizes its multimerization on adjacent microsatellites”.
This is one part of the list.

What follows are sequences tested against T1, MBP-FoxP1dN (Mus musculus, UniProt P58462 326-579) (assay: PD-seq (MBP pull-down with sequencing); 20 mM Tris-HCl pH 7.5, 100 mM NaCl, 1.5 mM MgCl2, 0.4 uM protein, 0.1 uM dsDNA library, 30 min, room temperature, amylose pull-down; high values mean tight binding). Conditions: protein: recombinant; tags: His6-MBP; chain copies: 2; dsDNA, one strand shown.
T1 sequence: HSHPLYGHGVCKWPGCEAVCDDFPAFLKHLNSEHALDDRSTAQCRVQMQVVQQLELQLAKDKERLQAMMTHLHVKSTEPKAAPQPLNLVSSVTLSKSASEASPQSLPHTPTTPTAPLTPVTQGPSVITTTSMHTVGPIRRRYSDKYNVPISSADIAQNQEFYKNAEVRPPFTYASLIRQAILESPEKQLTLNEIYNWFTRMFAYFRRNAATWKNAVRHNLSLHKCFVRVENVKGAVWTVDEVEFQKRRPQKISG
Summary of the method: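 Binding is given as reads-per-million enrichment, pull-down over input, with replicates pooled. The bait was an N-terminus-lacking mouse FoxP3 or FoxP1 fragment with a His6-MBP tag, expressed in E. coli and used at 0.4 µM with 0.1 µM Klenow-filled degenerate double-stranded DNA library for 30 min at room temperature in Tris pH 7.5 buffer with NaCl and MgCl2. Amylose resin pull-down with three washes was followed by proteinase K release, PCR barcoding and Illumina sequencing.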

**Q.** With “GATGATTGTTCTCCCAGCTGATGAATTTTTGAGGTCGAGTAAACAAATTTTCCTAATCTTTCTGTTCAAGCGCCATCTAC” as the sequence, how does the binding signal read?
**A.** 0.794 RPM ratio (pull-down/input)

**Q.** “GATGATTGTTCTCCCAGCTGATGAATTGATAAGGTCGAGTAAACAAATTTTCCTAATCTTTCTGTTCAAGCGCCATCTAC” was tested. Which binding signal did it give?
**A.** 0.854 RPM ratio (pull-down/input)

**Q.** Which binding signal does the source give for “GATGATTGTTCTCCCAGCTGATGAATTCTGCTGATCGAGTAAACAAATTTTCCTAATCTTTCTGTTCAAGCGCCATCTAC” here?
**A.** 1.02 RPM ratio (pull-down/input)

**Q.** For “GATGATTGTTCTCCCAGCTGATGAATTCTGGCCTTCGAGTAAACAAATTTTCCTAATCTTTCTGTTCAAGCGCCATCTAC”, which binding signal is on record?
**A.** 0.876 RPM ratio (pull-down/input)

**Q.** How did the binding signal turn out when “GATGATTGTTCTCCCAGCTGATGAATTGCGCGCATCGAGTAAACAAATTTTCCTAATCTTTCTGTTCAAGCGCCATCTAC” was run?
**A.** 1.33 RPM ratio (pull-down/input)

**Q.** With “GATGATTGTTCTCCCAGCTGATGAATTAGTACGATCGAGTAAACAAATTTTCCTAATCTTTCTGTTCAAGCGCCATCTAC” as the sequence, how does the binding signal read?
**A.** 1.01 RPM ratio (pull-down/input)

**Q.** How did the binding signal turn out when “GATGATTGTTCTCCCAGCTGATGAATTGAACTCATCGAGTAAACAAATTTTCCTAATCTTTCTGTTCAAGCGCCATCTAC” was run?
**A.** 0.866 RPM ratio (pull-down/input)

**Q.** With “GATGATTGTTCTCCCAGCTGATGAATTGTAGGGTTCGAGTAAACAAATTTTCCTAATCTTTCTGTTCAAGCGCCATCTAC” as the sequence, how does the binding signal read?
**A.** 0.95 RPM ratio (pull-down/input)

**Q.** Which binding signal does the source give for “GATGATTGTTCTCCCAGCTGATGAATTGCTTACGTCGAGTAAACAAATTTTCCTAATCTTTCTGTTCAAGCGCCATCTAC” here?
**A.** 1.61 RPM ratio (pull-down/input)

**Q.** How did the binding signal turn out when “GATGATTGTTCTCCCAGCTGATGAATTAAACCCGTCGAGTAAACAAATTTTCCTAATCTTTCTGTTCAAGCGCCATCTAC” was run?
**A.** 0.921 RPM ratio (pull-down/input)

**Q.** How did the binding signal turn out when “GATGATTGTTCTCCCAGCTGATGAATTGGAAAGCTCGAGTAAACAAATTTTCCTAATCTTTCTGTTCAAGCGCCATCTAC” was run?
**A.** 0.847 RPM ratio (pull-down/input)

**Q.** For “GATGATTGTTCTCCCAGCTGATGAATTCATCGTGTCGAGTAAACAAATTTTCCTAATCTTTCTGTTCAAGCGCCATCTAC”, which binding signal is on record?
**A.** 0.891 RPM ratio (pull-down/input)

**Q.** “GATGATTGTTCTCCCAGCTGATGAATTCCTCAACTCGAGTAAACAAATTTTCCTAATCTTTCTGTTCAAGCGCCATCTAC” was tested. Which binding signal did it give?
**A.** 0.809 RPM ratio (pull-down/input)

**Q.** How did the binding signal turn out when “GATGATTGTTCTCCCAGCTGATGAATTTACGCGTTCGAGTAAACAAATTTTCCTAATCTTTCTGTTCAAGCGCCATCTAC” was run?
**A.** 1.28 RPM ratio (pull-down/input)

**Q.** With “GATGATTGTTCTCCCAGCTGATGAATTCTTTATGTCGAGTAAACAAATTTTCCTAATCTTTCTGTTCAAGCGCCATCTAC” as the sequence, how does the binding signal read?
**A.** 1.04 RPM ratio (pull-down/input)

**Q.** “GATGATTGTTCTCCCAGCTGATGAATTTCATGGCTCGAGTAAACAAATTTTCCTAATCTTTCTGTTCAAGCGCCATCTAC” was tested. Which binding signal did it give?
**A.** 0.799 RPM ratio (pull-down/input)

**Q.** Which binding signal does the source give for “GATGATTGTTCTCCCAGCTGATGAATTACGGTAGTCGAGTAAACAAATTTTCCTAATCTTTCTGTTCAAGCGCCATCTAC” here?
**A.** 0.967 RPM ratio (pull-down/input)

**Q.** “GATGATTGTTCTCCCAGCTGATGAATTCCCTCTATCGAGTAAACAAATTTTCCTAATCTTTCTGTTCAAGCGCCATCTAC” was tested. Which binding signal did it give?
**A.** 0.946 RPM ratio (pull-down/input)

**Q.** How did the binding signal turn out when “GATGATTGTTCTCCCAGCTGATGAATTGCTACGATCGAGTAAACAAATTTTCCTAATCTTTCTGTTCAAGCGCCATCTAC” was run?
**A.** 1.01 RPM ratio (pull-down/input)

**Q.** How did the binding signal turn out when “GATGATTGTTCTCCCAGCTGATGAATTACATTTCTCGAGTAAACAAATTTTCCTAATCTTTCTGTTCAAGCGCCATCTAC” was run?
**A.** 1.13 RPM ratio (pull-down/input)

**Q.** With “GATGATTGTTCTCCCAGCTGATGAATTATAGTTCTCGAGTAAACAAATTTTCCTAATCTTTCTGTTCAAGCGCCATCTAC” as the sequence, how does the binding signal read?
**A.** 0.973 RPM ratio (pull-down/input)

**Q.** Which binding signal does the source give for “GATGATTGTTCTCCCAGCTGATGAATTTCTGAGCTCGAGTAAACAAATTTTCCTAATCTTTCTGTTCAAGCGCCATCTAC” here?
**A.** 0.746 RPM ratio (pull-down/input)

**Q.** Which binding signal does the source give for “GATGATTGTTCTCCCAGCTGATGAATTATGAACTTCGAGTAAACAAATTTTCCTAATCTTTCTGTTCAAGCGCCATCTAC” here?
**A.** 0.95 RPM ratio (pull-down/input)

**Q.** For “GATGATTGTTCTCCCAGCTGATGAATTTGCGCTGTCGAGTAAACAAATTTTCCTAATCTTTCTGTTCAAGCGCCATCTAC”, which binding signal is on record?
**A.** 0.978 RPM ratio (pull-down/input)

**Q.** With “GATGATTGTTCTCCCAGCTGATGAATTCTTCCATTCGAGTAAACAAATTTTCCTAATCTTTCTGTTCAAGCGCCATCTAC” as the sequence, how does the binding signal read?
**A.** 0.96 RPM ratio (pull-down/input)

**Q.** With “GATGATTGTTCTCCCAGCTGATGAATTCGTACATTCGAGTAAACAAATTTTCCTAATCTTTCTGTTCAAGCGCCATCTAC” as the sequence, how does the binding signal read?
**A.** 1.1 RPM ratio (pull-down/input)

**Q.** For “GATGATTGTTCTCCCAGCTGATGAATTCCCTAGCTCGAGTAAACAAATTTTCCTAATCTTTCTGTTCAAGCGCCATCTAC”, which binding signal is on record?
**A.** 0.679 RPM ratio (pull-down/input)

**Q.** With “GATGATTGTTCTCCCAGCTGATGAATTCGTGTTCTCGAGTAAACAAATTTTCCTAATCTTTCTGTTCAAGCGCCATCTAC” as the sequence, how does the binding signal read?
**A.** 0.9 RPM ratio (pull-down/input)

**Q.** “GATGATTGTTCTCCCAGCTGATGAATTACCACTCTCGAGTAAACAAATTTTCCTAATCTTTCTGTTCAAGCGCCATCTAC” was tested. Which binding signal did it give?
**A.** 0.961 RPM ratio (pull-down/input)

**Q.** Which binding signal does the source give for “GATGATTGTTCTCCCAGCTGATGAATTCGTCCTGTCGAGTAAACAAATTTTCCTAATCTTTCTGTTCAAGCGCCATCTAC” here?
**A.** 0.78 RPM ratio (pull-down/input)

**Q.** Which binding signal does the source give for “GATGATTGTTCTCCCAGCTGATGAATTTGTTGTTTCGAGTAAACAAATTTTCCTAATCTTTCTGTTCAAGCGCCATCTAC” here?
**A.** 2.54 RPM ratio (pull-down/input)

**Q.** With “GATGATTGTTCTCCCAGCTGATGAATTCTGCGCTTCGAGTAAACAAATTTTCCTAATCTTTCTGTTCAAGCGCCATCTAC” as the sequence, how does the binding signal read?
**A.** 0.884 RPM ratio (pull-down/input)

**Q.** How did the binding signal turn out when “GATGATTGTTCTCCCAGCTGATGAATTCAGCCGATCGAGTAAACAAATTTTCCTAATCTTTCTGTTCAAGCGCCATCTAC” was run?
**A.** 0.787 RPM ratio (pull-down/input)

**Q.** How did the binding signal turn out when “GATGATTGTTCTCCCAGCTGATGAATTGCCAACCTCGAGTAAACAAATTTTCCTAATCTTTCTGTTCAAGCGCCATCTAC” was run?
**A.** 0.93 RPM ratio (pull-down/input)

**Q.** With “GATGATTGTTCTCCCAGCTGATGAATTTGGCCAATCGAGTAAACAAATTTTCCTAATCTTTCTGTTCAAGCGCCATCTAC” as the sequence, how does the binding signal read?
**A.** 0.911 RPM ratio (pull-down/input)

**Q.** With “GATGATTGTTCTCCCAGCTGATGAATTCGACCGCTCGAGTAAACAAATTTTCCTAATCTTTCTGTTCAAGCGCCATCTAC” as the sequence, how does the binding signal read?
**A.** 0.76 RPM ratio (pull-down/input)

**Q.** With “GATGATTGTTCTCCCAGCTGATGAATTGGCCGGCTCGAGTAAACAAATTTTCCTAATCTTTCTGTTCAAGCGCCATCTAC” as the sequence, how does the binding signal read?
**A.** 0.769 RPM ratio (pull-down/input)

**Q.** For “GATGATTGTTCTCCCAGCTGATGAATTACCAGTATCGAGTAAACAAATTTTCCTAATCTTTCTGTTCAAGCGCCATCTAC”, which binding signal is on record?
**A.** 1.09 RPM ratio (pull-down/input)

**Q.** “GATGATTGTTCTCCCAGCTGATGAATTACTAAGGTCGAGTAAACAAATTTTCCTAATCTTTCTGTTCAAGCGCCATCTAC” was tested. Which binding signal did it give?
**A.** 1.03 RPM ratio (pull-down/input)

**Q.** For “GATGATTGTTCTCCCAGCTGATGAATTATGTACGTCGAGTAAACAAATTTTCCTAATCTTTCTGTTCAAGCGCCATCTAC”, which binding signal is on record?
**A.** 1.26 RPM ratio (pull-down/input)
